{"source": "the supplement of paper PMC10338343", "note": "± gives the standard deviation. The entries are a selection whose mix differs from that of the whole data set."}
{"system": "MIWI (PIWIL1) piRISC loaded with piRNA #1 (30 nt)", "test": "pre-steady-state target cleavage rate (min^-1); MIWI and MILI are mouse PIWI proteins and EfPiwi is from a freshwater sponge; tags in brackets are library labels; higher = faster piRNA-guided slicing of the target", "conditions": "guide: piRNA #1 5'p-UGAGGUAGUAGGUUGUAUAGUAUCCAGAGG; auxiliary factor: 500 nM mouse GTSF1", "in_short": "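In Cleave-'n-Seq, a transcribed, DNA-blocked target RNA library (0.1 nM) was combined with 1 nM active affinity-purified piRISC bearing one synthetic guide, with or without 500 nM GTSF1 partner protein. Reactions ran in HEPES–potassium acetate buffer at 33 °C for 0–8 or 0–960 min. Uncleaved targets were sequenced and normalised to depth and to weakly complementary targets, three trials were pooled, and k3 was capped at 0.0001 min^-1. The pre-steady-state cleavage rate was obtained by fitting a burst-and-steady-state model.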"}
{"sequence": "GGAGUGGAUACUAUGCAACCUACUACCUCA", "pre-steady-state target cleavage rate": "1.62 ± 0.11"}
{"sequence": "GGAGACCUAUCUUUAGAACCUACUACCUCA", "pre-steady-state target cleavage rate": "0.0114 ± 0.0032"}
{"sequence": "GGAGACCUAUCUAUACAACCUACUACCCA", "pre-steady-state target cleavage rate": "0.18 ± 0.03"}
{"sequence": "GCUCUGGUUACUAUACAUCCUACUACCUCA", "pre-steady-state target cleavage rate": "1.72 ± 0.098"}
{"sequence": "GGAGAGGAUACUAUACAACCUACUUCCUGA", "pre-steady-state target cleavage rate": "0.00407 ± 0.0024"}
{"sequence": "GGAGACGAUACUAUCCAACCUACUACCUCA", "pre-steady-state target cleavage rate": "1.45 ± 0.08"}
{"sequence": "GGAGACCAUACUAUACUACCUAGUACCUCA", "pre-steady-state target cleavage rate": "0.259 ± 0.027"}
{"sequence": "GGAGACCUAUCUAUACAUCGUACUACCUCA", "pre-steady-state target cleavage rate": "0.004 ± 0.0024"}
{"sequence": "GGAGACCUAUCUAUACAACUACUACCUCA", "pre-steady-state target cleavage rate": "0.00254 ± 0.0024"}
{"sequence": "GGAGACCAUACUAUAUAACCUACUACCUCA", "pre-steady-state target cleavage rate": "1.55 ± 0.1"}
{"sequence": "GGUCUGGAUACUAAACAACGUACUACCUCA", "pre-steady-state target cleavage rate": "0.851 ± 0.062"}
{"sequence": "GGACUGGAUACUAAUCAACCUACUACCUCA", "pre-steady-state target cleavage rate": "1.53 ± 0.15"}
{"sequence": "GGAGACCAUACUUUACAUCCUACUACCUCA", "pre-steady-state target cleavage rate": "0.953 ± 0.094"}
{"sequence": "GGACUGGAUACUAUACAACCUACUUGCUCA", "pre-steady-state target cleavage rate": "0.00305 ± 0.0025"}
{"sequence": "GGACUGCAUACUUUACAACCUACUACCUCA", "pre-steady-state target cleavage rate": "1.27 ± 0.12"}
{"sequence": "GGACAGGAUACUAUACAACCUACAACCUCA", "pre-steady-state target cleavage rate": "0.331 ± 0.037"}
{"sequence": "GGACUGGAUACUAUUCAACCUACUACCUCA", "pre-steady-state target cleavage rate": "1.64 ± 0.11"}
{"sequence": "GGAGUGGAUUCUAUACAACCUACUACCUGA", "pre-steady-state target cleavage rate": "0.441 ± 0.076"}
{"sequence": "GCUCUGGAUACUAUACAACCUACUCCUCA", "pre-steady-state target cleavage rate": "0.0332 ± 0.01"}
{"sequence": "GGAGACCUUACUAUGCAACCUACUACCUCA", "pre-steady-state target cleavage rate": "1.27 ± 0.099"}
{"sequence": "GGACAGGAAACUAUACAACCUACUACCUCA", "pre-steady-state target cleavage rate": "1.69 ± 0.096"}
{"sequence": "GGAGACCUUACUAAACAACCUACUACCUGA", "pre-steady-state target cleavage rate": "0.223 ± 0.032"}
{"sequence": "GGAGACGAUACUAUACAACCUACUACCUACA", "pre-steady-state target cleavage rate": "1.2 ± 0.077"}
{"sequence": "CCAGAGGAUACUAUACAACCUACUACCUCA", "pre-steady-state target cleavage rate": "0.35 ± 0.05"}
{"sequence": "GGAGACCAAUACUAUACAACCUACUACCUCA", "pre-steady-state target cleavage rate": "1.69 ± 0.11"}
{"sequence": "GGAGACCUUACUAUACAACCUACUACCCUCA", "pre-steady-state target cleavage rate": "0.999 ± 0.062"}
{"sequence": "GCUCUGGAUACUAUACAACCUACUAGCUGA", "pre-steady-state target cleavage rate": "0.187 ± 0.03"}
{"sequence": "GGAGACCUUACUAUACAAUCUACUACCUCA", "pre-steady-state target cleavage rate": "0.358 ± 0.021"}
{"sequence": "GGUCUGGAUACUAUACAAACUACUACCUCA", "pre-steady-state target cleavage rate": "0.79 ± 0.035"}
{"sequence": "GGAGACGAUACUAUACAACCUACUAGCUGA", "pre-steady-state target cleavage rate": "0.166 ± 0.058"}
{"sequence": "GGAGACCUAUCUAUACAACCUGCUACCUCA", "pre-steady-state target cleavage rate": "0.22 ± 0.022"}
{"sequence": "GGUCUGGAUACUUUACAACCAACUACCUCA", "pre-steady-state target cleavage rate": "0.0818 ± 0.0078"}
{"sequence": "GGAGACCUAACUAUACAACCUACUACUCUCA", "pre-steady-state target cleavage rate": "1.09 ± 0.09"}
{"sequence": "GGAGACGAUACUAUACAUCCUACUACGUCA", "pre-steady-state target cleavage rate": "0.76 ± 0.062"}
{"sequence": "GGACUGGAUACAAUUCAACCUACUACCUCA", "pre-steady-state target cleavage rate": "1.22 ± 0.13"}
{"sequence": "GGAGUGGAUACUUUACAUCCUACUACCUCA", "pre-steady-state target cleavage rate": "1.14 ± 0.076"}
{"sequence": "GCUCUGGAUACUAAACAACCUUCUACCUCA", "pre-steady-state target cleavage rate": "0.565 ± 0.032"}
{"sequence": "GGAGUGGAUACUAUACAACCUACUACACUCA", "pre-steady-state target cleavage rate": "0.602 ± 0.088"}
{"sequence": "GGAGACCAUACUAUACAACCUACUAGCACA", "pre-steady-state target cleavage rate": "0.228 ± 0.042"}
{"sequence": "CCUUCUGGAUACUAUACAACCUACUACCUCA", "pre-steady-state target cleavage rate": "2.22 ± 0.12"}
